For one series, the system named is WT Tregs. The series can be described thus: Metabolic analysis (pyruvate kinase, pyruvate dehydrogenase, PEP) in in vitro Tregs. The format is cell-based, mice. The method, then:
(§1) Colons and cells were suspended within assay specific buffer and homogenized for 10 seconds. Homogenate was centrifuged for 10 minutes at 10,000×g. For enzyme activity assays, supernatant was collected and plated. Samples were mixed with enzyme developer and substrate. Colorimetric detection of NADH production was measured using a BioTek μQuant plate reader in combination with Gen5 software. For PEP assay, supernatant was deproteinized using perchloric acid mediated purification. Samples were plated and mixed with a probe, converter, developer mix. PEP concentration was measured by absorbance quantification on plate reader.
Spleens from WT and Lancl2−/− mice were excised and crushed to generate a single cell suspension. CD4+ T cell fraction was enriched by negative selection via magnetic sorting with the BD IMag system. Naïve CD4+ T cells were obtained by incubation with a biotinylated CD62L antibody followed by conjugation to streptavidin coated magnetic beads. Naïve cells were incubated for 48 hours within anti-CD3 coated tissue culture plates in complete IMDM media containing all-trans retinoic acid and purified TGF-β to stimulate differentiation into Tregs. […] Metabolic modulators, PS-48 (5 μM), DASA-58 (10 μM), and thapsigargin (10 nM), were added at 0 h. […] Six hours prior to assay, cells were stimulated with PMA and ionomycin. Cells were collected from plate for downstream analysis by flow cytometry, gene expression and metabolic assay.

For series [1], the system named is colonic CD4+ T cells from Mdr1a−/− mice. The series is described as follows: Gene expression in colonic CD4+ T cells of treated Mdr1a−/− mice. It counts as in vivo. The settings on record: oral BT-11, 10 weeks of age.
The test system of another series is Rag2−/− recipient mice. The series is described as follows: Adoptive transfer model: Teff and Treg co-transfer into Rag2−/− mice. It counts as in vivo.
The test system of another series is Mdr1a−/− mice. The series is described as follows: Mdr1a−/− mice with PS-48 injections (in vivo validation of immunometabolic effect). The method, then: as §1
To validate the in vitro immunometabolic findings, Mdr1a−/− mice were given weekly intraperitoneal injections of PS-48 or vehicle control. […] Similar patterns were observed within the DSS model.

For series [2] the following is noted: after oral administration; cited from earlier work.
The next series concerns Naïve CD4+ T cells. The series can be described thus: Differentiation of naïve CD4+ T cells into Tregs with IL-2 or IL-12 (flow cytometry). The format is cell-based, mice. The method, then:
Naïve CD4+ T cells were isolated from the spleens of mice by magnetic sorting. The isolated cells were incubated in anti-CD3/anti-CD28 coated 96 well plates in Treg differentiation media. The Treg differentiation media was Iscove's Modified Dulbecco's Medium (IMDM) media (ThermoFisher Scientific) supplemented with fetal bovine serum, HEPES, penicillin/streptomycin, L-glutamine, and differentiation agents. The Treg differentiation agents were 10 nM all-trans-retinoic acid and 5 ng/mL TGF-β. Additional experiments were conducted comparing differentiation in the Treg differentiation media with and without the addition of 10 ng/mL IL-2 or IL-12. […] Prior to assay, cells were stimulated with PMA and ionomycin for 6 hours.
Colonic lamina propria lymphocytes and cultured cells were plated in 96 well plates (6×10^5 cells/well) and processed for immunophenotyping by flow cytometry as previously described. Briefly, cells were incubated with fluorochrome conjugated antibodies to extracellular markers: CD45, CD4, CD3, CD25, CD8. Samples needing a secondary staining were incubated with secondary antibodies, or streptavidin-conjugated fluorochrome. The samples were then fixed and permeabilized. Cells were incubated with antibodies to intracellular markers: Tbet, IFNγ, IL10, FOXP3, IL17, RORγT. Data was acquired with a BD FACS Celesta flow cytometer and analyzed using FACS Diva software (BD Pharmingen).
Naïve CD4+ T cells were differentiated into Tregs in vitro in the presence or absence of IL-2 according to the methods described above.
Cells were also differentiated in the presence of inhibitors for PTEN (SF1670) or STATS (STAT5i).
For orientation: In flow cytometry, cells or beads pass a laser one at a time.

The subject of series [3] is Lancl2ΔT and Lancl2-expressing control mice challenged with DSS. Conditions: early evaluations of efficacy; cited from earlier work.
The test system of a further series is C. difficile. The series can be described thus: C. difficile culture in chopped meat media (anti-microbial properties). Conditions: BT-11 at 1, 10 and 100 ug/mL, 24 hours after inoculation.
Setting [4] is: at 10 weeks of age, oral BT-11, vehicle injections.
Where [5] appears, read: IL-12-treated samples (10 ng/mL).

Here are results for one compound from patent US11197891B2, “Therapies with lanthionine C-like protein 2 ligands and cells prepared therewith” (Landos Biopharma, Inc., priority 2017, dated 2021).

With `O=C(c1cccc(-c2nc3ccccc3[nH]2)n1)N1CCN(C(=O)c2cccc(-c3nc4ccccc4[nH]3)n2)CC1` [BT-11, N,N-Bis(benzimidazolylpicolinoyl)piperazine], the “phosphoenolpyruvate (PEP) concentration” value in the series with WT Tregs (BT-11-treated Tregs versus vehicle-treated controls) is “significantly lower”. Besides, the pyruvate kinase activity entry in the series with WT Tregs (WT Tregs, 0.625 μM) is “increase in pyruvate kinase activity”. The “pyruvate dehydrogenase (PDH) activity” value in the series with WT Tregs (particularly at 0.156 μM and 0.625 μM) is reported as “stimulated by BT-11 treatment”. For the same compound, in series [1], the “expression of Pten and Phlpp1” value is on record as “slightly, but non-significantly, increased”; the “expression of Stat5a and Foxo1” value was “significantly higher expression”. In addition, the “efficacy of oral treatment” value in the series on Rag2−/− recipient mice (KO Teff / WT Treg transfer) is “presented efficacy in recipients of WT Treg cells”. The “cellular or histopathological characterizations of inflammation” value in the series on Rag2−/− recipient mice (WT Teff / KO Treg transfer) is reported as “no benefit of BT-11 treatment”. The “inflammation across all measures (disease activity, histopathology, Th1, neutrophils, cytokines)” value with Rag2−/− recipient mice (WT Teff / WT Treg transfer) was “consistent decreases in inflammation”. Further, in the series on Mdr1a−/− mice (setting [4]), the “PDH activity within the colon” value is given as “increased PDH activity” and the “PEP concentration within the colon” value was “decreased PEP concentration”. Moreover, the “expression of Treg cell-stability associated genes in colon” value in the series with Mdr1a−/− mice (oral BT-11) is recorded as “upregulated with BT-11 treatment”. Moreover, in series [2], the plasma half-life is 3.1 h and the systemic bioavailability is recorded as less than 10%. Besides, the “CD25+ FOXP3+ subtype” value in the series with Naïve CD4+ T cells (100 nM, absence of IL-2) is listed as “significantly increased the establishment of a CD25+ FOXP3+ subtype”. Besides, in the series with Naïve CD4+ T cells (setting [5]), the “CD25+ FOXP3+ cells” value is reported as “retained significantly higher levels of CD25+ FOXP3+ cells” and the “CD25+ Tbet+ cells” value is given as “dose-dependent protection against this mixed subset”. In the series with Naïve CD4+ T cells (as low as 10 nM, presence of IL-2 (10 ng/mL)), the “CD25+ FOXP3+ cells” value is “induced significantly more CD25+ FOXP3+ cells”. Also, in the series with Naïve CD4+ T cells (with or without IL-2), the “CD25+ Tbet+ subtype” value is on record as “not statistically altered by BT-11”. In addition, the “disease activity scores in mice challenged with DSS” value in series [3] is given as “improvement in disease activity scores”. In the series on C. difficile, the colony forming units entry was “No concentration of BT-11 tested induced a decrease”.
